Measured values from patent publication US20250092108A1 (published 2025).

B1: XENP14135 (wild-type IL-2 with C125S mutation) (ligand)
chain: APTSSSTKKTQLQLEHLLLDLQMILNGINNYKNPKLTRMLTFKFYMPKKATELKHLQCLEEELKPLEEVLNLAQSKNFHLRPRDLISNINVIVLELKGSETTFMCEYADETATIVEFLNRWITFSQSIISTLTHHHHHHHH
B2: XENP14144 (R38L) (ligand)
chain: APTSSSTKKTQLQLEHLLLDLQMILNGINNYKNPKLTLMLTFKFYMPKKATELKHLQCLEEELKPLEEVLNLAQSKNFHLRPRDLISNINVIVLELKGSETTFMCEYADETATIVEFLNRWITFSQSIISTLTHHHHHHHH
B3: XENP14142 (variant IL-2 with R38I and C125S) (ligand)
chain: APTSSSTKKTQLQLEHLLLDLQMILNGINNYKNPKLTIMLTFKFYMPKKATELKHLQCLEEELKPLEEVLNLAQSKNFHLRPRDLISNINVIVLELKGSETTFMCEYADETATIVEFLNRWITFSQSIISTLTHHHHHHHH

Target: T1, human CD25 (IL-2Rα) (human, UniProt P01589 22-213)
T1 chain: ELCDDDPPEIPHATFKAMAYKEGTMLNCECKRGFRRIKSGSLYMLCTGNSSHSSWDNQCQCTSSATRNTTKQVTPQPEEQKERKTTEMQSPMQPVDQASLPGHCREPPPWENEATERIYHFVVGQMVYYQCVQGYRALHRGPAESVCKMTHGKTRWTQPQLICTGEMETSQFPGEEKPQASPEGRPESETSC
Assay: Biacore; pH 6.0

Row | Binder | Kd
1 | B1 | 167 nM
2 | B2 | 17.7 nM
3 | B3 | 18.3 nM

Target: T1, human CD25 (IL-2Rα)
Assay: Biacore; pH 7.4

Row | Binder | Kd
4 | B1 | 15.6 nM
5 | B2 | 39.1 nM
6 | B3 | 49.8 nM
